Source: PubChem BioAssay AID1468 (National Center for Advancing Translational Sciences (NCATS), 2008)
About 1,100 (0.39%) of roughly 280,000 compounds were called active. This list was built around the results that the source calls inconclusive (neither active nor inactive); the mix of calls is not that of the screen. Calls come from the whole dose curve; as a rule, active = well fitted inhibition curve with a large enough effect; inconclusive = small, poorly fitted or top-dose-only effect, or effect the other way; inactive = flat fitted curve, though single readings scatter. Potencies of inconclusive entries are left out as doubtful fits.

Molecular target: Microtubule-associated protein tau (Homo sapiens) (UniProt P10636)
Experiment: qHTS for Inhibitors of Tau Fibril Formation, Fluorescence Polarization; note: nearly all actives have a fitted effect of over 55% in size
Conditions: K18 P301L tau heparin fibrillization, Alexa594 FP, 6 h; series mostly up to 57.7 µM; activity, negative = inhibition: at the top concentration
Summary of the method: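 Human tau K18 […] P301L fragment, 15 uM unlabeled plus 0.24 uM Alexa 594-labeled tau (final), with compound and 20 uM heparin in 100 mM sodium acetate pH 7; 6 hr at 37 C, then Alexa 594 FP read.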
% is set by controls: 0 for no effect and ±100 for the full control effect; potency is the fitted concentration of half-maximal effect; tags give direction and shape of the fitted curve.

Chain of UniProt P10636 (P10636 whole entry, looked up): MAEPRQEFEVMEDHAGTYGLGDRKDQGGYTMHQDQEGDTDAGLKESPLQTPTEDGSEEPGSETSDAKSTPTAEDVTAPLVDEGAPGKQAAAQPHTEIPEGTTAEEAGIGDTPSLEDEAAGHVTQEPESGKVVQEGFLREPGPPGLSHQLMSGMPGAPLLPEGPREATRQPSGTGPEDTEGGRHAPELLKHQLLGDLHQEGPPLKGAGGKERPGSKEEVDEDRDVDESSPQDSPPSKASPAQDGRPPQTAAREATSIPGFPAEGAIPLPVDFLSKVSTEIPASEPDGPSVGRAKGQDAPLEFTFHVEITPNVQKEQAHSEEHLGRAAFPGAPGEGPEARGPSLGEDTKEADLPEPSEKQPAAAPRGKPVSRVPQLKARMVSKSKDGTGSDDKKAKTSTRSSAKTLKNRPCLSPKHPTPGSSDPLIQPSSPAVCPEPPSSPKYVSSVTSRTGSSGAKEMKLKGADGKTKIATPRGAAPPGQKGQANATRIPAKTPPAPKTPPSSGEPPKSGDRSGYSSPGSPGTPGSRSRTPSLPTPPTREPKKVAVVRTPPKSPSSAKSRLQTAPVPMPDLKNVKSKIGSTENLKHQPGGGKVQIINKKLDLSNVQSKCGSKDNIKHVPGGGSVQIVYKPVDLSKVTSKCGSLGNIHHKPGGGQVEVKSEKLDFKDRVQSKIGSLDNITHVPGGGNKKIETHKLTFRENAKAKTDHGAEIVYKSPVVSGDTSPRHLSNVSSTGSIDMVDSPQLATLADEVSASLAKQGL

Q: With `O=C(Nc1cccc(-c2nc3ccccc3o2)c1)c1ccc(N2C(=O)C3C4C=CC(C4)C3C2=O)cc1` (centres undefined) as the compound, how does the Potency read?
A: Its Potency is inconclusive [inhibitor, single point].

Q: `CCN(C(=S)Nc1cc(S(=O)(=O)N2CCOCC2)ccc1Cl)c1cccc2ccccc12` was tested. Which Potency did it give?
A: The Potency was inconclusive [inhibitor, partial curve].

Q: With `CCOC(=O)c1c(C)oc2c1cc(O)c1ccccc12` as the compound, how does the Potency read?
A: Its Potency is inconclusive [activator, partial curve].

Q: Which “activity, negative = inhibition” value does the source give for `CCOc1ccc(S(=O)(=O)NCc2nc3cccnc3n2Cc2ccccc2OC)cc1` here?
A: Its value is inactive: 6.02%.

Q: `C[N+](C)(C)CCC(=O)c1cccc2ccccc12` was tested. Which Potency did it give?
A: Its Potency is inconclusive [inhibitor, single point].

Q: With `Cc1ccc2nc(-c3ccc(NC(=O)COc4ccccc4C(C)(C)C)cc3)sc2c1` as the compound, how does the Potency read?
A: The Potency was inconclusive [inhibitor, single point].

Q: Which Potency does the source give for `COc1cc(-c2noc(-c3ccc(NC4CCCC4)c([N+](=O)[O-])c3)n2)cc(OC)c1OC` here?
A: Its Potency is inconclusive [inhibitor, partial curve].

Q: For `COc1ccc(-c2noc(-c3cc(-c4ccc(F)cc4)n[nH]3)n2)cc1`, which Potency is on record?
A: The Potency was inconclusive [inhibitor, partial curve].

Q: `Cc1cccn2c(CN[C@H]3CCCCNC3=O)c(C(=O)N3CCOCC3)nc12` was tested. Which “activity, negative = inhibition” value did it give?
A: The value was inactive: -0.654%.

Q: Which Potency does the source give for `COc1ccc(C2C(C(=O)Nc3cccnc3)=C(C)Nc3nc(SCc4ccccc4)nn32)cc1` (centres undefined) here?
A: The Potency was inconclusive [inhibitor, full curve, poor fit].

Q: `COc1ccc(OC)c(NC(=O)Nc2nnc(N3CCC(C)CC3)s2)c1` was tested. Which “activity, negative = inhibition” value did it give?
A: Its value is inactive: 8.73%.

Q: Which Potency does the source give for `O=C(CCn1nc(-c2ccccc2)ccc1=O)NCCCN1CCCCCC1` here?
A: Its Potency is inconclusive [inhibitor, partial curve].

Q: Which Potency does the source give for `O=C(NC(NC(=S)Nc1ccccc1Cl)C(Cl)(Cl)Cl)c1cccc(Cl)c1` (centres undefined) here?
A: The Potency was inconclusive [inhibitor, partial curve].

Q: `COc1ccc(NC(=S)NNC(=O)Cn2nc([N+](=O)[O-])cc2C)cc1` was tested. Which “activity, negative = inhibition” value did it give?
A: Its value is inactive: 6.68%.

Q: Which “activity, negative = inhibition” value does the source give for `O=C(COC(=O)c1ccc(Cl)nc1)Nc1ncc(Cl)cc1Cl` here?
A: Its value is inactive: 13%.

Q: How did the Potency turn out when `Cc1ccc(S(=O)(=O)Nc2ccccc2CNc2ncc(Br)cc2Br)cc1` was run?
A: The Potency was inconclusive [inhibitor, single point].

Q: `COc1cccc(-c2oc3ccc(C)cc3c(=O)c2O)c1` was tested. Which “activity, negative = inhibition” value did it give?
A: The value was inactive: -9.17%.

Q: For `CCOc1ccc(C2C(C#N)=C(C)NC3=C2C(=O)c2ccccc23)cc1` (centres undefined), which Potency is on record?
A: The Potency was inconclusive [inhibitor, single point].

Q: How did the “activity, negative = inhibition” value turn out when `CN1C(=O)C(O)(CC(=O)/C=C/c2ccco2)c2cc(Br)ccc21` (centres undefined) was run?
A: The value was inactive: -1.41%.
